Consider 51 molecules from article PMC6919601, “Identification of Plasmodium dipeptidyl aminopeptidase allosteric inhibitors by high throughput screening” (PLoS ONE, 2019).

The whole screen tested about 110,000 compounds, of which about 230 (0.21%) showed an effect of 50% or more. Some of the results follow.
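Note: 30 min substrate incubation versus DMSO and 10 µM JCP410 controls.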

The target of the assay is DPAP1 (Plasmodium falciparum, UniProt Q8IIJ9). Nature of the assay: primary screen, percent inhibition; read by cleavage of a fluorogenic dipeptide substrate; higher = more effect of the substance. Further details: species or system P. falciparum D10 trophozoite lysates; single well.
Sequence of DPAP1 (Q8IIJ9 whole entry, looked up): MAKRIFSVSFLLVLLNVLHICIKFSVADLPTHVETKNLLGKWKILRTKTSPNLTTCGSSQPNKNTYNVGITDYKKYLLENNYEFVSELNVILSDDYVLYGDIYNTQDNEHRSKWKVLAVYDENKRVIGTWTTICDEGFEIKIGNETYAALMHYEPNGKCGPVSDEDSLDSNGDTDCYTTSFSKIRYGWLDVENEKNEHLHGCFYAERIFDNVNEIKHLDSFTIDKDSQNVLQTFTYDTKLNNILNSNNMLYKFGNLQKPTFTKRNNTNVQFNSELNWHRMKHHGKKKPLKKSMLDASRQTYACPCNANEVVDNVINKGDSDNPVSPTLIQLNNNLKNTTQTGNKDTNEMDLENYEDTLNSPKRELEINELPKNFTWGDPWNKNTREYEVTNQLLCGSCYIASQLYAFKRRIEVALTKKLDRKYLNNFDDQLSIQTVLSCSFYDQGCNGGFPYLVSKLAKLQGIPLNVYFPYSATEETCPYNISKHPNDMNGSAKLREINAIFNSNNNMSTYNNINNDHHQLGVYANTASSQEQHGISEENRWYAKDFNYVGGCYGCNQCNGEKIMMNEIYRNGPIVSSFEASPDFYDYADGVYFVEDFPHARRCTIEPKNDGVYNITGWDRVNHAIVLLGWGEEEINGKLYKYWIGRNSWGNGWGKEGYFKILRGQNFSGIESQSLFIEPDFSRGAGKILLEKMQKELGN
As for `COC(=O)C1=C(C)N=c2s/c(=C/c3ccco3)c(=O)n2C1c1cccs1` (stereo not drawn), the “% Inhibition @ 10 uM” value was 7.62%. Under `Cc1ccc2occ(CC(=O)Nc3nc4ccc(S(C)(=O)=O)cc4s3)c2c1` stands -4.19%; under `O=C(Nc1ccc(F)cc1)Nc1cccc(Cl)c1`, 1.48%. Consider `CC1CN(Cc2cccc(F)c2)CC(C)O1` (stereo not drawn), for which the “% Inhibition @ 10 uM” value was -3.15%. On to `CC(C)C(NC1C=CS(=O)(=O)C1)C(=O)O` (stereo not drawn), for which the “% Inhibition @ 10 uM” value was -5.28%. In the case of `Oc1c2nc(S)nc-2cnn1-c1ccccc1`, the “% Inhibition @ 10 uM” value is 87.4%.

Take `COc1ccc(S(=O)(=O)N2CCN(c3nc4ccccc4nc3-n3nc(C)cc3C)CC2)cc1`: the “% Inhibition @ 10 uM” value is on record as -3.9%. The figure for `COc1ccc(C2NC(=O)NC(C)=C2C(=O)Nc2ccc(Cl)cc2)cc1OC` (stereo not drawn) is 0.35%; for `Cc1ccc(CCN2CC(C(=O)NCCCN3CCN(C)CC3)CC2=O)cc1` (stereo not drawn) it is 1.62%. For the molecule `COc1ccc(NC(=O)c2c(NC(=O)CCC(=O)O)sc3c2CCC(C(C)(C)C)C3)cc1` (stereo not drawn), the “% Inhibition @ 10 uM” value stood at 10.3%. Under `OC(COc1ccc(Br)cc1)CN1CCN(c2ccccc2)CC1` (stereo not drawn) stands 0.389%; under `Cc1cc(=O)oc(C)c1C(=O)NCCCN1C(C)CCCC1C` (stereo not drawn), -0.519%; under `CCOC(=O)c1c(C)c(-c2ccccc2)n(CC(=O)Nc2cccnc2)c1C`, -1.66%.

With `Cc1ccc(-c2cc(C(=O)N3C(C)CCCC3C)n[nH]2)cc1` (stereo not drawn), the “% Inhibition @ 10 uM” value is recorded as -3.1%. The figure for `CCSc1nc(O)c2c(n1)OC(N)=C(C#N)C2C(C)C` (stereo not drawn) is -5.85%; for `Cc1cc(C)n2nc(C)c(-c3ccc(Cl)cc3)c2n1` it is 0.345%. Under `Cc1cc(=O)n2nc(N3CCC(C(=O)N4CCOCC4)CC3)sc2n1` stands -2%; under `CCN1CCN(C(=O)C2CCN(c3nnc(C)c4c(C)n(-c5ccc(C)cc5)nc34)CC2)CC1`, 2.92%; under `CCc1ccc(C2C(C#N)=C(N)OC3=C2C(=O)c2ccccc2C3=O)cc1` (stereo not drawn), 0.815%.

In the case of `COc1ccc(/N=C2/S/C(=C\c3ccc(O)c(Cl)c3)C(=O)N2C)cc1`, the “% Inhibition @ 10 uM” value is given as 2.37%.

As to `COc1ccc(NC(=O)c2scc3c2CCCC3)cc1`, the “% Inhibition @ 10 uM” value is given as -2.56%. Take `COc1ccc2c(c1)cc1n2CCN=C1NCCO`: the “% Inhibition @ 10 uM” value is on record as 2.14%. As for `OC1=C2C(=Nc3nc4ccccc4n3C2c2cccc(F)c2Br)CCC1` (stereo not drawn), the “% Inhibition @ 10 uM” value is -1.62%. Consider `COc1ccc(CNC(=O)CN(c2cc(Cl)ccc2C)S(C)(=O)=O)cc1`, for which the “% Inhibition @ 10 uM” value is listed as 2.13%. With `Cc1ccc(CNC(=O)NC2CCCCC2)cc1`, the “% Inhibition @ 10 uM” value worked out at 3.85%. Regarding `O=C(c1cccs1)c1no[n+]([O-])c1C(=O)c1cccs1`, the “% Inhibition @ 10 uM” value came to 5.7%. As for `CSC1=N/C(=C\C=C\c2cccs2)C(=O)S1`, the “% Inhibition @ 10 uM” value turned out to be 0.884%. Regarding `NC(=O)CS(=O)(=O)c1nc2ccccc2n1Cc1ccccc1F`, the “% Inhibition @ 10 uM” value is recorded as 2.64%.

For the molecule `CCn1c(SC)nc2sc3c(c2c1=O)CCc1ccccc1-3`, the “% Inhibition @ 10 uM” value was -7.23%. Turning to `O=C(CSc1ccccc1)NC1CCCC1`, the “% Inhibition @ 10 uM” value came out at 1.02%. For the molecule `Cc1[nH]nc(-c2ccc(S(=O)(=O)N3CCCC3)s2)c1C`, the “% Inhibition @ 10 uM” value is given as -4.36%. The figure for `COc1ccccc1/C=C/CN1CCCC(O)C1` (stereo not drawn) is 0.217%; for `CCCNC(=O)c1ccc2c(c1)c(C)c(C)n2C` it is 0.747%. The figure for `COc1ccc(-c2c(C)oc3cc(OC(C)C(=O)O)ccc3c2=O)cc1OC` (stereo not drawn) is -1.11%; for `O=C(Cn1ncc2c3ccccc3n(Cc3ccccc3)c2c1=O)NCC1CCCO1` (stereo not drawn) it is 0.137%. Under `COc1ccc(/C=C2\Oc3cc(OCc4ccccc4F)ccc3C2=O)cc1` stands -1.81%. For `NC(=O)/C(=C\c1ccccc1F)NC(=O)c1ccccc1`, the “% Inhibition @ 10 uM” value was found to be 1.27%. `CCN(CC)CCCN1C(=O)CSC1c1ccc2c(c1)OCO2` (stereo not drawn): the “% Inhibition @ 10 uM” value was determined as 2.94%. In the case of `C(=N\c1cc(-c2ccccc2)nn1-c1ccccc1)/c1cccnc1`, the “% Inhibition @ 10 uM” value is listed as 2.8%. Take `CCN(CC)c1ccc2c(C(F)(F)F)cc(=O)oc2c1`: the “% Inhibition @ 10 uM” value is -4.21%. `CN1CCN(CCNC(=O)C2c3ccccc3C(=O)N(C)C2c2cccs2)CC1` (stereo not drawn): the “% Inhibition @ 10 uM” value was -7.02%. Take `COc1cc2nc(S)nc(NC3CCCCCC3)c2cc1OC`: the “% Inhibition @ 10 uM” value was -4.69%.

In the case of `O=C(c1ccc(CN2CCc3ccccc3C2)cc1)N1CCCCC1`, the “% Inhibition @ 10 uM” value was -0.0626%. In the case of `C=CCn1c(SCc2ccc(Cl)cc2)nc2c1c(=O)n(C)c(=O)n2C`, the “% Inhibition @ 10 uM” value was determined as 1.35%. For the molecule `COc1ccc(S(=O)(=O)N(CC(=O)N2CCCCCC2)c2ccc(C)cc2)cc1`, the “% Inhibition @ 10 uM” value was -10%. As to `Cc1ccc(CCC(=O)Nc2ccc(Cl)cc2)o1`, the “% Inhibition @ 10 uM” value is recorded as -5.96%. Regarding `COc1ccc(-n2cccc2/C=C2/C(=N)N3C(c4ccccc4)=CSC3=NC2=O)cc1`, the “% Inhibition @ 10 uM” value was -1.54%.

`N#CC1=C(SCc2ccccc2)NC(=O)CC1c1ccccc1Cl` (stereo not drawn): the “% Inhibition @ 10 uM” value is given as -4.08%. Consider `Cn1cc2c(c1-c1ccccc1Br)c(=O)n(C)c(=O)n2C`, for which the “% Inhibition @ 10 uM” value was determined as 2.41%. Under `Cc1ccc(-c2onc(C)c2C)cc1S(=O)(=O)NCc1ccc(Cl)cc1` stands -8.27%; under `CS(=O)(=O)c1ccc2nc(NC(=O)C3C4C=CC(C4)C3C(=O)O)sc2c1` (stereo not drawn), -0.996%.
